The full ranking holds about 13,000 compounds; the median of “IFI” is about 4, and the highest 2% start at about 17. Some of the results follow.

The values below come from ChEMBL document CHEMBL1157539, “Thousands of chemical starting points for antimalarial lead identification” (Nature, 2010).

The nature of the assay: GSK_TCMDC: Inhibition Frequency Index (IFI). The number of non-kinase HTS assays where a compound showed > 50 % inhibition, expressed as a percentage of the number of such assays in which the compound was tested (-0 is zero). It counts as functional.
Turning to `Cc1ccccc1C1CCN(C2CCC(NC(=O)/C=C/c3ccccc3C(F)(F)F)CC2)CC1` (stereo not drawn), the IFI came out at 14.8%.

Take `Oc1ccc(CCNc2nc(NCc3ccc4cc(Cl)ccc4c3)nc(N3CCNCC3)n2)cc1`: the IFI was 17.2%.

`O=c1cc(NCCCNCc2ccc3c(c2)OC(F)(F)O3)[nH]c2ccccc12` returned an IFI of 1.45%.

Regarding `COc1ccc(S(=O)(=O)Nc2cc(C)cc(Br)c2OC)cc1N1CCN(C(=O)C(Cl)(Cl)Cl)CC1`, the IFI is 3.15%.

In turn, `CCC(CC)NCc1c(O)ccc2c(CNC(CC)CC)c(O)ccc12` showed an IFI of 3.62%.

Regarding `CC(C)(C)c1ccc(C(=O)Nc2cccc(Nc3c(C(=O)NCc4cccc(C(F)(F)F)c4)cnc4c(O)cccc34)c2)cc1`, the IFI was determined as 3.68%.

Compound `O=C(Nc1ccc([N+](=O)[O-])cc1Cl)c1cc2ccccc2cc1O` displayed an IFI of 12.8%.

Consider `O=C(/C=C/c1ccc(C(F)(F)F)cc1)NCCCCCN1CCN(C(=O)Nc2ccc(F)c(Cl)c2)CC1`, for which the IFI is 7.92%.

`COc1ccccc1CCNc1nc(C)cc(N[C@@H](CC(C)C)C(=O)NCCc2ccccc2)n1` had an IFI of 12.5%.

Compound `N#Cc1cccc(C(=O)Nc2ccc(-c3ccc(CN4CCCC4)cc3)cc2)c1` returned an IFI of 5.15%.

Turning to `C[C@H]1CN(Cc2cccc(-c3cc(CNC(=O)c4cccc(CN5CCN(CCOc6ccccc6)CC5)c4)ccc3F)c2)CCN1`, the IFI was 9.09%.

As to `CC1(C)Cc2c(oc3ncn(CCn4cnc5oc6c(c5c4=N)CC(C)(C)SC6)c(=N)c23)CS1`, the IFI is 1.44%.

Compound `COc1ccc2nccc([C@@H](O)CN3CCC(NC(=O)c4cc5c(F)cc(F)cc5[nH]4)CC3)c2c1` came in with an IFI of 3.55%.

The compound `CCCCc1cc(NCC)nc(Nc2cccc(OC)c2)n1` registered an IFI of 7.04%.

`Cc1ccc(Cn2ncc(N3CCCNCC3)c(Cl)c2=O)cc1NC(=O)Nc1ccc(-c2ccccc2)cc1` yielded an IFI of 10.7%.

On to `N#Cc1ccc(CN2CCC(Oc3ccc(NC(=O)c4ccsc4)cc3Cl)C2)cc1` (stereo not drawn), for which the IFI turned out to be 11.9%.

Turning to `Cc1cccc2nc(-c3cccc(-c4ccc(C(=O)NCc5ccccc5S(C)(=O)=O)cc4)c3)[nH]c12`, the IFI came to 0.95%.

The compound `N#Cc1cncc(-c2nc3c(N4CCC(Cc5ccccc5)CC4)cccc3n2CCNCc2ccccc2)c1` showed an IFI of 4.17%.

`COc1cc([N+](=O)[O-])ccc1NC(=O)Nc1ccc(OC(F)(F)F)cc1` returned an IFI of 18.4%.

The compound `O=C(Nc1cccc(-c2ccc(CN3CCCC3)cc2)c1)c1cccc(F)c1` had an IFI of 0%.

`CCCCC(CCCC)CN1C(=O)C(c2ccccc2)(c2ccccc2)N=C1N` showed an IFI of 20.9%.

Consider `NC1CCN(CCNCc2cccc(-c3ccc(-c4nc5cc(F)ccc5[nH]4)cc3)c2)C1` (stereo not drawn), for which the IFI is 1.41%.

`FC(F)(F)c1ccc2[nH]c(-c3ccc(-c4ccc(CN5CCN(c6cnccn6)CC5)cc4)s3)nc2c1` yielded an IFI of 8.82%.

Compound `COCCN(C(=O)Cc1cccs1)C(C(=O)NCc1ccc(OC)cc1)c1ccc(C(C)C)cc1` (stereo not drawn) showed an IFI of 1.4%.

Consider `FC(F)(F)c1ccc2[nH]c(-c3ccc(-c4cccc(CNCCc5cccnc5)c4)s3)nc2c1`, for which the IFI was found to be 8.24%.

Regarding `CC(C)NCc1cccc(-c2cccc(NC(=O)c3cccc(Cl)c3)c2)c1`, the IFI amounted to 3.85%.

Take `c1ccc(CN2CCN(CCCCNc3c4ccccc4nc4ccccc34)CC2)cc1`: the IFI is 3.1%.

The compound `O=C(/C=C/c1cccc(Cl)c1)NCCCCCN1CCC(c2c[nH]c3ccccc23)CC1` had an IFI of 6.76%.

`COc1ccc(-c2csc3ncnc(Cl)c23)cc1` registered an IFI of 2.1%.

The compound `CCN(CC)CCN(Cc1ccc(-c2ccc(C(F)(F)F)cc2)cc1)C(=O)Cn1c(CCc2cc(F)cc(F)c2)nc(=O)c2ccccc21` showed an IFI of 8.33%.

Take `COCCCNc1sc(S(=O)(=O)c2ccccc2)nc1S(=O)(=O)c1ccc(Cl)cc1`: the IFI is 0%.

`COc1ccc(C(C)Nc2nc(N)c3cc(OC)c(OC)cc3n2)cc1` (stereo not drawn) had an IFI of 1.56%.

In the case of `CCCCCCOc1ccccc1C(=O)NCCOc1ccc(Cl)cc1`, the IFI is 3.73%.

Take `Nc1nc(N)c2c(ccc3c2ccn3Cc2ccc(OCc3ccccc3)cc2)n1`: the IFI stood at 0.76%.

As for `CCOC(=O)c1cc(=O)c2ccc(OCC#N)cc2o1`, the IFI came to 1.49%.

For the compound `COc1ccc2nccc([C@@H](O)CN3CCC(NC(=O)C(=Cc4ccc(C#N)cc4)c4ccc(-c5ccccc5)cc4)CC3)c2c1`, the IFI stood at 0%.

`O=C(C=Cc1ccc(Cl)c(Cl)c1)NCCCCCN1CCC(CCCNC(=O)c2sc3ccccc3c2Cl)CC1`: the IFI was determined as 11.4%.

`O=C(CNc1ccncc1)c1c[nH]c2ccccc12` showed an IFI of 1.6%.

`CCOc1ccc2[nH]c(C)cc(=NN=Cc3ccccc3Cl)c2c1` displayed an IFI of 3.68%.

Turning to `CC(C)CNCc1cccc(-c2ccc(CNc3ccc(C(=O)c4ccccc4)cc3)cc2)c1`, the IFI is 3.57%.

Take `O=c1nc(C=Cc2ccc(Br)cc2)oc2ccccc12`: the IFI came out at 7.62%.

In turn, `Cc1cc(Nc2cccc(C(F)(F)F)c2)nc2ccc(NC(=O)c3ccc(=O)[nH]c3)cc12` came in with an IFI of 2.6%.

Turning to `Cn1ccnc1Sc1ncccc1[N+](=O)[O-]`, the IFI was 0%.

Compound `Nc1c(Cl)cc(C(O)CNCCCCCOCCc2ccc3occc3c2)cc1Cl` (stereo not drawn) registered an IFI of 2.54%.

Compound `CC(C)[C@H](NC(=O)c1ccc(O)c(-c2ccc(Cl)c(Cl)c2)c1)C(=O)NCCN1CCCCC1` gave an IFI of 2.96%.

In the case of `CCN1CCC(N(Cc2ccc(-c3ccc(C(F)(F)F)cc3)cc2)C(=O)CCCCn2c(CCc3cccc(F)c3F)nc(=O)c3ccccc32)CC1`, the IFI was determined as 12%.

In turn, `O=C(NCC1CCN(Cc2ccsc2)C1)c1cc(-c2cccc(C(F)(F)F)c2)cs1` (stereo not drawn) registered an IFI of 9.43%.

`COc1cc(NC(=O)/C=C/c2ccccc2OC(F)(F)F)cc(OCCN2CCC(O)(c3ccccc3)CC2)c1` returned an IFI of 6.57%.

For `CN(CC1CCC(NC(=O)/C=C/c2ccc(Cl)c(Cl)c2)CC1)C1CCC(c2c[nH]c3ccccc23)CC1` (stereo not drawn), the IFI was found to be 6.21%.

As to `COc1ccc2cc(C(c3nnnn3CC3CCCO3)N3CCc4ccccc43)c(=O)[nH]c2c1` (stereo not drawn), the IFI turned out to be 2.48%.

`CCc1nc(N)nc(N)c1-c1ccccc1` gave an IFI of 0.75%.

`CC(C)Oc1cc2c(cc1NS(=O)(=O)c1ccc(-c3cccs3)cc1)CCN(C)CC2` displayed an IFI of 4.26%.

In turn, `COCCOc1nc(N)nc2ncc(Cc3cc(OC)ccc3OC)c(C)c12` registered an IFI of 2.9%.

In turn, `CCN(CC)/C(=N/C(=N)Nc1ccc(Cl)cc1)NCCCCCCCCN/C(=N\C(=N)Nc1ccc(Cl)cc1)N(CC)CC` displayed an IFI of 5.8%.

For `CCOC(=O)c1ccc(NCc2ccccn2)cc1`, the IFI was -0%.

In the case of `COCCNC(=O)C(CNC(=O)c1ccc2c(c1)OCO2)NC(=O)c1ccc(-c2ccccc2)cc1` (stereo not drawn), the IFI came out at 1.49%.

Regarding `CCOc1ccccc1CNc1nccc(NCCc2cn(C)c3ccccc23)n1`, the IFI was found to be 7.69%.

`O=C(Nc1cccc(CN2CCCN(Cc3cccc(O)c3)CC2)c1)c1ccc2ccccc2c1` returned an IFI of 3.42%.
